Results taken from patent US20250032450A1, “[…] INHALABLE FORMULATIONS” (Cybin UK Ltd., priority 2021, published 2025).

Assay: pH-stability of SPL026 (DMT fumarate) 2.5 mg/mL in 40 mM Britton-Robinson buffer (pH, HPLC assay, related substances)
[1] = nominal pH 4.0, Day 7: 7 days storage at 40° C.
[2] = nominal pH 4.0, Day 17: 10 days at 40° C. followed by 7 days at 50° C.
[3] = nominal pH 5.0, Day 7: 7 days storage at 40° C.
[4] = nominal pH 6.0, Day 7: 7 days storage at 40° C.
[5] = nominal pH 6.5, Day 7: 7 days storage at 40° C.
[6] = nominal pH 7, Day 17: 10 days storage at 40° C., 7 days storage at 50° C.
[7] = nominal pH 7 UV light (200 watt hours UVA, 0.6 million luxhours)
[8] = nominal pH 7.5, Day 17: 10 days storage at 40° C., 7 days storage at 50° C.
[9] = nominal pH 8.0, Day 7: 7 days storage at 40° C.
[10] = nominal pH 8, Day 17: 10 days storage at 40° C., 7 days storage at 50° C.

## CN(C)CCc1c[nH]c2ccccc12.O=C(O)/C=C/C(=O)O [SPL026, N,N-dimethyltryptamine (DMT) fumarate salt]
[1]
  Concentration (assay): 2570 µg/mL
  Total related substances: ND (ND—<0.02 area of total peak area)
[2]
  Concentration (assay): 2520 µg/mL
  Total related substances: ND (ND—<0.02 area of total peak area)
Nominal pH 4.0, Initial
  Concentration (assay): 2470 µg/mL
  Total related substances: ND (ND—<0.02 area of total peak area)
[3]
  Concentration (assay): 2480 µg/mL
  Total related substances: ND (ND—<0.02 area of total peak area)
Nominal pH 5.0, Day 17: 10 days at 40° C. followed by 7 days at 50° C.
  Concentration (assay): 2520 µg/mL
Nominal pH 5, Day 17: 10 days storage at 40° C., 7 days storage at 50° C.
  individual related substance, percentage area of total peak area, relative retention time 1.56: 0.07%
Nominal pH 5.0, Initial
  Concentration (assay): 2500 µg/mL
  Total related substances: ND (ND—<0.02 area of total peak area)
[4]
  Concentration (assay): 2560 µg/mL
  Total related substances: ND (ND—<0.02 area of total peak area)
Nominal pH 6.0, Day 17: 10 days at 40° C. followed by 7 days at 50° C.
  Concentration (assay): 2480 µg/mL
Nominal pH 6, Day 17: 10 days storage at 40° C., 7 days storage at 50° C.
  individual related substance, percentage area of total peak area, relative retention time 1.56: 0.09%
Nominal pH 6.0, Initial
  Concentration (assay): 2510 µg/mL
  Total related substances: ND (ND—<0.02 area of total peak area)
[5]
  Concentration (assay): 2590 µg/mL
  Total related substances: ND (ND—<0.02 area of total peak area)
Nominal pH 6.5, Day 17: 10 days at 40° C. followed by 7 days at 50° C.
  Concentration (assay): 2510 µg/mL
Nominal pH 6.5, Day 17: 10 days storage at 40° C., 7 days storage at 50° C.
  individual related substance, percentage area of total peak area, relative retention time 1.56: 0.10%
Nominal pH 6.5, Initial
  Concentration (assay): 2490 µg/mL
  Total related substances: ND (ND—<0.02 area of total peak area)
Nominal pH 6.5 with N2 (sparged with nitrogen), Day 17: 10 days storage at 40° C., 7 days storage at 50° C.
  individual related substance, percentage area of total peak area, relative retention time 1.56: 0.05%
Nominal pH 7.0, Day 7: 7 days storage at 40° C.
  Total related substances: ND (ND—<0.02 area of total peak area)
[6]
  individual related substance, percentage area of total peak area, relative retention time 0.73: 0.09%
  individual related substance, percentage area of total peak area, relative retention time 0.91: 0.05%
Nominal pH 7.0, Initial
  Total related substances: ND (ND—<0.02 area of total peak area)
Nominal pH 7.0 UV Light, Initial
  Total related substances: ND (ND—<0.02 area of total peak area)
Nominal pH 7.0 UV Light, on completion of light stressing (200 watt hours UVA, 0.6 million luxhours)
  Total related substances: 1.68^a %
[7]
  individual related substance, percentage area of total peak area, relative retention time 0.54: 0.05%
  individual related substance, percentage area of total peak area, relative retention time 0.77: 0.06%
  individual related substance, percentage area of total peak area, relative retention time 0.80: 0.07%
  individual related substance, percentage area of total peak area, relative retention time 1.56: 0.10%
Nominal pH 7.0 sparged N2, Day 7: 7 days storage at 40° C.
  Total related substances: ND (ND—<0.02 area of total peak area)
Nominal pH 7.0 sparged N2, Initial
  Total related substances: ND (ND—<0.02 area of total peak area)
Nominal pH 7.5, Day 7: 7 days storage at 40° C.
  Total related substances: ND (ND—<0.02 area of total peak area)
[8]
  individual related substance, percentage area of total peak area, relative retention time 0.91: 0.07%
  individual related substance, percentage area of total peak area, relative retention time 1.56: 0.09%
Nominal pH 7.5, Initial
  Total related substances: ND (ND—<0.02 area of total peak area)
[9]
  Concentration (assay): 2490 µg/mL
  Total related substances: ND (ND—<0.02 area of total peak area)
Nominal pH 8.0, Day 17: 10 days at 40° C. followed by 7 days at 50° C.
  Concentration (assay): 2420 µg/mL
[10]
  individual related substance, percentage area of total peak area, relative retention time 0.91: 0.09%
  individual related substance, percentage area of total peak area, relative retention time 0.95: 0.05%
  individual related substance, percentage area of total peak area, relative retention time 1.56: 0.07%
Nominal pH 8.0, Initial
  Total related substances: ND (ND—<0.02 area of total peak area)
Nominal pH 9.0, Day 7: 7 days storage at 40° C.
  Concentration (assay): 2410 µg/mL
Nominal pH 9.0, Day 17: 10 days at 40° C. followed by 7 days at 50° C.
  Concentration (assay): 2460 µg/mL
Nominal pH 9.0, Initial
  Concentration (assay): 2470 µg/mL
  Total related substances: ND (ND—<0.02 area of total peak area)

Marks after values point to notes of the source that are not given here.
